# Read counts are not given, so values of variants with three or more changes are uncertain.
# B1: CPEB3 Ribozyme (parent)
# chain: UAACAGGGGGCCACAGCAGAAGCGUUCACGUCGCAGCCCCUGUCAGAUUCUGGUGAAUCUGCGAAUUCUGCUGUAUAUCUC
# Variants of: B1
# Assay: self-cleavage, relative activity (ratio to wild type); higher = more cleavage; in vitro, sequencing
# Method in brief: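 Barcoded CPEB3 ribozyme mutants, produced by rounds of error-prone PCR, self-cleaved while being transcribed with T7 RNA polymerase for 5 hours at 37°C and during a subsequent 15 min DNase I step before EDTA was added. Sequencing of template-switched cDNA on Illumina gave cleaved and total reads, and DNA sequencing assigned barcodes to variants. Each variant's relative activity is its cleaved/total read fraction divided by the unmutated ribozyme's fraction, averaged across three batches. A variant needed a minimum of 5 reads.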
row,Variant,self-cleavage
1,U25C A45C U60C U78C,0.08
2,U25C A45U U72C,0.2
3,U25A U41G U51A U76C,0.24
4,U25C A57U U76C,0.13
5,U25C A47G U67A U78C,0.06
6,U25C A28G U67C U78C,0.06
7,U25A U60C U72C,0.26
8,U25A G61A U69C,0.16
9,U25A U31C A65G,0.34
10,U25C A45U U76C U80C,0.07
11,U25C A35G U48C,0.39
12,U25C A28U U51C,0.11
13,U25C A45U A47U U49C U54C,0.05
14,U25A G42U U43A U66C,0.4
15,U25C A35U U54C,0.17
16,U25C A28G U72A U78C,0.14
17,U25C A45C U48C U60G U80C,0.15
18,U25C A45U G55U U72A,0.24
19,U25C A28C U80C,0.21
20,U25C A35C G46A,0.2
21,U25A C32U U60A,0.22
22,U25A U41A U54G,0.12
23,U25C A56U U74A A75G,0.03
24,U25A C32U A57U,0.07

row,Variant,self-cleavage
1,U25A C32U U78C,0.36
2,U25C A35G U43A U74C U80C,0.24
3,U25A G33U A56G U69G U72A,0.05
4,U25A U66C C68A,0.39
5,U25C A56G U72C,0.16
6,U25A U69C U80C,0.11
7,U25C A35C U58A A64U,0.19
8,U25A U43C U76C U80C,0.23
9,U25C A28U C32A U48C U78C,0.3
10,U25A U41C U43A U60C U66C U69C,0.05
11,U25A C38U U51A A57G A75C U76C,0.05
12,U25C A35U U80C,0.26
13,U25C A28C C59G U80C,0.06
14,U25A U69C A77U,0.15
15,U25A U26C A77U,0.12
16,U25C A35G A65G,0.15
17,U25C A56G U76A,0.1
18,U25C A35G U43C U58C C59U,0.11
19,U25A U26A U51A,0.13
20,U25C A47U U48C U69A,0.3
21,U25A U48A U76A A77G,0.05
22,U25C A35G C40U U54C A64U,0.42
23,U25A G55A U60C,0.1
24,U25A U26C A45G A47G U60A U74A A75U,0.1

row,Variant,self-cleavage
1,U25C A47G U76C A77U,0.28
2,U25C A28U A47G,0.17
3,U25A U26G A35G U48C U49C U60G,0.11
4,U25C A35G G46A A56G,0.08
5,U25C A35C G70A C71U,0.13
6,U25C A35U A64G U67A U78C,0.12
7,U25C A47G U78C,0.16
8,U25A U26C A65C,0.48
9,U25A U26G A47G U58C U66C U80C,0.05
10,U25C A35G U54A,0.42
11,U25C A35G U41A C44U G53C A57G,0.21
12,U25C A45G C68A,0.17
13,U25C A45U A47G U48C U54C,0.13
14,U25A U31C U41C,0.09
15,U25C A28C U31C U67C,0.18
16,U25C A35G U41A A45G U76A,0.17
17,U25A U60A U78C,0.08
18,U25A U43C U58C,0.34
19,U25A G36A A57G,0.13
20,U25C A56G U66C U72A,0.08
21,U25C A35U U49C C50G,0.1
22,U25C A35U C40A U67C,0.13
23,U25C A47G U60A A75G,0.19
24,U25C A28U U43C A65G,0.54

row,Variant,self-cleavage
1,U25A C32U A56G,0.18
2,U25A C50G U66C,0.1
3,U25A U49C U67C,0.12
4,U25C A28G C37U A45G U67C,0.06
5,U25A C50G U66C U69A,0.18
6,U25C A57G U80A,0.1
7,U25A U60C A64U,0.11
8,U25A U49C U69C,0.17
9,U25A U48C U51A,0.22
10,U25A U41A A57G,0.38
11,U25C A45G U60C U66C,0
12,U25C A45G G46U,0.22
13,U25C A45U U49A A57G A65G A75C,0.05
14,U25C A47G U54C A56G C62U A64U,0.06
15,U25C A28G A56G C68A U78C,0.13
16,U25C A35G U41C U60A,0.19
17,U25A U31A A64U,0.24
18,U25C A35C U41C U49C,0.06
19,U25A U49C U67A U78C,0.41
20,U25C A45G U58C A64G A77G,0.07
21,U25A U43C U54C A77U,0.08
22,U25C A64G U66C,0.19
23,U25A U26C U72C U74C,0.06
24,U25C A35G A45C U48C,0.07

row,Variant,self-cleavage
1,U25C A45G C68U C79G,0.53
2,U25A U31C C32U A45G U66C,0.03
3,U25A U43C A56G U58G C59A A75G,0.13
4,U25A C32U U54A U60C,0.42
5,U25C A35G A56G A77G,0.33
6,U25C A56U A77G,0.14
7,U25C A35G U49C U78C,0.1
8,U25A C38A U58A,0.15
9,U25C A35U A47U,0.16
10,U25A U60A G73U,0.2
11,U25A U26C U41C A47G U49C U66C,0.05
12,U25A U26C C27U A45U,0.34
13,U25C A28G U31C,0.36
14,U25C A28G U31A,0.11
15,U25A U31C C38G U43C U66C,0.16
16,U25A U41A G55A A57U U66C,0.08
17,U25A C34U U54A,0.16
18,U25A U26C C27U A56G U60A U67A U72C,0.04
19,U25A U26C C59A,0.11
20,U25A U43C A47G A57U G63U U80C C81U,0.17
21,U25C A47G U51A A65G U69A,0.08
22,U25C A35U A65G,0.13
23,U25C A28U A45U U74A,0.18
24,U25C A45U U49C U69C,0.16

row,Variant,self-cleavage
1,U25C A47C U49C U72A,0.08
2,U25A C39G U60C U72C U74G,0.03
3,U25A G63U U76C U80A,0.08
4,U25A U26A U41C U49A A56G,0.07
5,U25C A47G U48C,0.19
6,U25A U31C U54G,0.25
7,U25C A57C G61A U74C,0.15
8,U25A G36A U49A U60G U66C,0.05
9,U25A G36C A47U U54C,0.1
10,U25A U31A A35C U43C,0.14
11,U25A U43C C44U,0.17
12,U25C A28C A35U A64G,0.08
13,U25A U51A U54A A65G U78A,0.12
14,U25C A35G U41A A45G U67C U69A,0.37
15,U25C A47G U51C A75G,0.06
16,U25C A28C C39U,0.2
17,U25C A45G A64U U80G,0.06
18,U25C A28G U49C U72C U74C,0.07
19,U25C A64G U67A,0.15
20,U25A U43A A56G U69C U76C,0.14
21,U25C A45G U80A,0.49
22,U25A U69A A77U,0.13
23,U25A U67A U72G U74C,0.27
24,U25A U43A A45G U67C U72C U74C U78C,0.06

row,Variant,self-cleavage
1,U25A U26A U69C,0.16
2,U25C A28G U43A A47G,0.07
3,U25C A45G U67A,0.14
4,U25C A28U G52C,0.09
5,U25C A28G U60C U78A,0.19
6,U25C A45G U51A U69C,0.12
7,U25C A56G U60A A65G,0.07
8,U25A U26C G33A A57U U69A,0.05
9,U25A U49C U58C A64G,0.26
10,U25C A45G U54A,0.46
11,U25C A45G U54G,0.13
12,U25C A28U C32G U54C A64U A65U,0.05
13,U25C A45G U51C U66C,0.2
14,U25A U26C C27U U66C U72C,0.04
15,U25A U26C A35U U69A A75G,0.15
16,U25A U41C U49C U51C U58C U74A,0.24
17,U25C A57G U78A U80C,0.18
18,U25A U51G A56U,0.08
19,U25C A28U U67C A77U U80C,0.09
20,U25A C32U U67C,0.12
21,U25C A28C U41C,0.27
22,U25A U43A A65U,0.26
23,U25C A35U U43C A56G U66C U69A A75G,0.04

# From the RNAGym collection of RNA variant scans (doi:10.1093/nar/gkz1192)
